Experimental data from the RNAGym collection of RNA variant scans (doi:10.7554/elife.90254).
Read counts are not given, so values of variants with three or more changes are uncertain.

B1: LINE1-mini (parent)
chain: GGCAGAGCUCAACACAGCGUGGCAAAGUGGCUGUGGCUAGACUGCC

Variants of: B1
Assay: self-cleavage, relative activity (ratio to wild type); higher = more cleavage; in vitro, sequencing; the parent is a self-cleaving ribozyme

Variant | self-cleavage
GACAGAGCUCAACACACCGUGGCAAAGUGGUUGGGGCUAGACUGCC [G2A G17C C31U U34G] | 0.01
GACAGAGCUCAACACAUCGGGGCAAAGUGGAUGUGGCUAGACUGCC [G2A G17U U20G C31A] | 0.2
GACAGAGCUCAACACAGCUUGGCAAAGUGUGUGUGGCUAGACAGCC [G2A G19U G30U C31G U43A] | 0.05
GACAGAGCUCAACACAGCUUGGCAAAGUGGCUAUGGCUAGACUGCC [G2A G19U G33A] | 0.18
GACAGAGCUCAACACAGCCUGGCAAAGUGGCUGUGGCUAGGCUGCC [G2A G19C A41G] | 0.06
GACAGAGCUCAACACACCGUGGCAAAGGGGCUGAGGCUAGUCUGCC [G2A G17C U28G U34A A41U] | 0.02
GACAGAGCUCAACACAGCUUGCCAAAGUGGUUGUGGCCAGACUGCA [G2A G19U G22C C31U U38C C46A] | 0.02
GACAGACCUCGACACAGCGUAGCAAAGUGGCUGUGGCUAGGCUGCC [G2A G7C A11G G21A A41G] | 0.02
GACAGAUCUCAACACAGCGUGGCAAAGUGGCUGUGGCUUGACUGCC [G2A G7U A39U] | 0.03
GACAGAGCUCAACACAUCGUGGCAAAGUGGCUGUGGCUAGACUACC [G2A G17U G44A] | 0.31
GACAGAGCUCAACACAGCGUUGCAAAGUGGCUGUGGCUAGACUGAC [G2A G21U C45A] | 1.76
GACAGAGCUCAACACAGCCUGGCAAGGUGGCUGUGGCUAGACUGCC [G2A G19C A26G] | 0.46
GACAGAGCUCAACACAGCCUGGCAAAGUGGCUGUGGAUAGACUGCC [G2A G19C C37A] | 0.09
GACAGAUCUCAAGACAGCGUGGCAAAGUGUCUGUGGCUAUACUGCC [G2A G7U C13G G30U G40U] | 0.02
GACAGACCUCAACACAGCGUGGCAAAGUGGCUAUGGCUAGACUGCC [G2A G7C G33A] | 0.51
GACAGAGCUCAACACAGCGUUGCAGAGUGGCUGUUGCUAGACUGCC [G2A G21U A25G G35U] | 0.13
GACAGAGCUCAACACAUCGUGGCAAAGUGGCUGUGGCUAGCCUGCC [G2A G17U A41C] | 0.02
GACAGAGCUCAACACAUCGUGGCAAAGUGGCUGUGGCUAGACUGCA [G2A G17U C46A] | 0.1
GACAGAGCUCAACACAGCGUAGCAAAGUGGCUGUGGCUAGUCUGCC [G2A G21A A41U] | 1.63

Variant | self-cleavage
GACAGAUCUCAACACAGUGUGGCAAAGUGGCUGUGGCUAGACUGCC [G2A G7U C18U] | 0.82
GACAGAGCUCAACACAGCCUGGCAAAGUGGCUGUGCCUAGACUGCC [G2A G19C G36C] | 0.06
GACAGAGCUCAACACAGCUCGGCAAAGUGGCUGAGGCUAGACUGCC [G2A G19U U20C U34A] | 0.08
GACAGAGCUCAACACAUCGUGGCAAAGGGGCUGUGGCUAGACUGCU [G2A G17U U28G C46U] | 0.05
GACAGAGCUCAACACAGCCUGGCAAAGUGGCUGUGGCGAGACUGCC [G2A G19C U38G] | 0.27
GACAGAGCUCAACACAGCAUGACAAAGUGGCUGUGGCUAGACUGCC [G2A G19A G22A] | 0.22
GACAGAGCUCAACACACCGUGGCAUAGUGGCUGUGGCUAGACGGCC [G2A G17C A25U U43G] | 0.2
GACAGAGCUCAACACAGCGUCGCAAAGUGGCUGAGGCUAGACUGCC [G2A G21C U34A] | 0.22
GACAGAGCUCAACACAACGUGGCAAAGUGGCUCUAGCUAGACUGCC [G2A G17A G33C G35A] | 0.03
GACAGAGCUCAACACACGGUGGAAAAGUGGCUGUGGCUAGACUGCA [G2A G17C C18G C23A C46A] | 0.03
GACAGAUCUCAACACAGCGUGGCAAAGUAACUGUGGCUAGACUGCC [G2A G7U G29A G30A] | 0.34
GACAGAGCUCAACACAGCGUUGAAAAGUGGCUGUGGCUAAACUGCC [G2A G21U C23A G40A] | 0.14
GACAGAGCUCAACACAGCGUCGCAAAGUGGCUGUGGCUUGACUGCC [G2A G21C A39U] | 0.43
GACAGAUCUCAACACAACGUGGCAAAGUGGCUGGAGCUAGACUGCG [G2A G7U G17A U34G G35A C46G] | 0.06
GACAGAUAUCAACACAGCGUGGCAAAGUGGCUGUGGCUAUACUGCC [G2A G7U C8A G40U] | 0.52
GACAGAGCUCAACACAGCCUGGCAAAGUGGCUGUGGCUAUACUGCA [G2A G19C G40U C46A] | 0.07
GACAGAGCUCAACACAGCGUUCCAAAGUGGCUGUUGCUAGUCUGCC [G2A G21U G22C G35U A41U] | 0.09
GACAGAGCUCAACACAGCGUCGCAACGUGGCGGUGGCUAGACUGCC [G2A G21C A26C U32G] | 0.15
GACAGAGCUCAACACAAUGUCGCAAAGUGGCUGUGGCUAGACUGAC [G2A G17A C18U G21C C45A] | 0.05

Variant | self-cleavage
GACAGAGCUCAACACAGCUUGGCAAAGUACCGGUGGCUAGACUGCC [G2A G19U G29A G30C U32G] | 0.06
GACAGAGCUCAACACAGCAUGGCAAAUUGGCUUUGGCUAGACUGCC [G2A G19A G27U G33U] | 0.06
GACAGAGCUCAACACACCGUCGUAACGUGGCUGUGGCUAGACUGCC [G2A G17C G21C C23U A26C] | 0.69
GACAGAGCUCAACACAGCGUCGCGACGUGGGUGCGGCUAGACUGCC [G2A G21C A24G A26C C31G U34C] | 0.1
GACAGAUCUAAACACAGCGUGGCAAAGUGGCUGUGGCUAGACUGCC [G2A G7U C10A] | 0.04
GACAGACCUCAACAUAGCGUGCCAAAGUGGCUGUGGCUAGACUGCC [G2A G7C C15U G22C] | 0.41
GACAGACCUCAACACAGCGUGGCAAAGUGGCUGUGGCUAGACUGCU [G2A G7C C46U] | 0.34
GACAGACCCCCACACAUCAUGGCAAAGUGGCUGUGUCUAGACUUCC [G2A G7C U9C A11C G17U G19A G36U G44U] | 0.01
GACAGAGCUCAACACAACGUGGCAAAGUGGCUGUGGCUAGACUGAC [G2A G17A C45A] | 0.15
GACAGAGCUCAACACAGCAUGGCAAAGUGGCUGUGGUAAGACUGCC [G2A G19A C37U U38A] | 0.05
GACAGAGCUCAACACAGCCUGGCAAAGUGGCUGUGGCUAAACUGCC [G2A G19C G40A] | 0.02
GACAGAGCUCAACACAGCUUGGCAAAGUGGCUGUGGCUAGACUGGU [G2A G19U C45G C46U] | 0.51
GACAGACCUCAACACAGCGUGGCAAAUUUGCUGUGGCUAGACUGCC [G2A G7C G27U G29U] | 0.54
GACAGAGCUCAACACACCGUGGCAAAGUGGCUGUGGCUAGACUACA [G2A G17C G44A C46A] | 0.02
GACAGAGCUCAACACACCUUGGCAAAGUGGCCGUGGCUAGACUGCC [G2A G17C G19U U32C] | 0.05
GACAGAGCUCAACACAGCCUGGCAAAGUGGCUGAGGCUAGACUGCC [G2A G19C U34A] | 0.45
GACAGAGCUCAACACAUCGGGGCAAAGUGGCUUUGGCUAGACUGCC [G2A G17U U20G G33U] | 0.06
GACAGAGCUCAACACAACGGGGCAAAAUGGCUGGGGCUAUACUGCC [G2A G17A U20G G27A U34G G40U] | 0.03
